Experimental data from the supplement of paper PMC7826260.
This is one part of the list. One pool of 16,384 single-stranded DNAs met each Rep nickase domain in vitro at 3 µM enzyme and 37 °C for 1 h; the strands have 90 letters, of which the middle is given. Numbers give uncut DNA relative to the enzyme-free pool, as log2; more negative means more cut, near 0 not cut, and no call is made. The scaling is to total reads, so uncut sequences can rise above 0 when many others are cut.

Tested on: T1, Rep nickase domain of tomato golden mosaic virus
T1 sequence (protein, residues 1-124, tag omitted): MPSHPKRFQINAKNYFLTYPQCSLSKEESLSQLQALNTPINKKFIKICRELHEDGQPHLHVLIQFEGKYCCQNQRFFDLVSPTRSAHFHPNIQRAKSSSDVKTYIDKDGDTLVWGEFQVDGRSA
Assay: uncleaved DNA left, log2 of reads against the no-enzyme library (log2 ratio); higher = less cleavage (more negative = more Rep cleavage of the k-mer); sequences stand for … in CTCGTCCG…ACCGGAGA
Experimental: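 A pool of 90-nt single-stranded DNAs with seven random bases just before the constant AC of the nick site (name = the seven bases) was cut by 3 µM recombinant His6-SUMO-tagged Rep nickase domain (300 nM DNA, 50 mM HEPES pH 8.0, 50 mM NaCl, 1 mM MnCl2, 1 h, 37 °C, three replicates). Uncut DNA was amplified and sequenced.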

Sequence | uncleaved DNA left (log2)
TGAGGAA | -0.0206
TTAAGTA | -0.00953
TGTCAAG | -0.124
TTGTCGA | -0.243
AACACGT | -0.143
AGTTCGG | 0.104
AGAAACA | 0.242
CGGTTAG | -0.05
GCTCATT | -0.0558
ATGAAAG | 0.0789
GGCCAGG | 0.18
AAGAGAA | 0.139
ACACCCG | -0.0724
AGATTGT | 0.0249
AATTTAT | 0.0364
ACCTCTG | -0.0954
CACCAAA | 0.274
TCGAGGC | 0.0249
ACAGGGC | -0.0178
AACTACC | -0.0217

Sequence | uncleaved DNA left (log2)
CGATCGG | 0.0671
AAAGTGG | 0.0566
TCGACGT | -0.0544
ACGAAAT | 0.118
GTAGTTG | 0.0315
GGACTGG | 0.0866
GATATCG | -0.0317
TTCGCCC | -0.152
GGGCCAC | -0.0227
TTTGGAA | -0.000543
CTTCGGA | 0.16
CAACCTG | -0.0389
ATAGCAG | -0.0245
GGAGGGC | 0.179
TCTGAAA | 0.0776
TTCAGCG | 0.053
CTGTCTT | -0.0138
GTTTCAT | 0.0992
CCAAGGG | -0.0289
TCCGTCT | -0.0767
